# Laboratory results as given in publication PMC4336329 (PLoS ONE, 2015).
# Among all 310,000 compounds or so, about 2,200 (0.71%) showed an effect of 50% or more. The effect is printed as a negative number. This is one part of the list.
# Biological target: human ether-à-go-go-related gene (hERG) potassium channel (human, UniProt Q12809)
# Experiment: primary screen, population patch clamp on CHO cells stably expressing hERG
# Chain of human ether-à-go-go-related gene (hERG) potassium channel (Q12809 whole entry, looked up): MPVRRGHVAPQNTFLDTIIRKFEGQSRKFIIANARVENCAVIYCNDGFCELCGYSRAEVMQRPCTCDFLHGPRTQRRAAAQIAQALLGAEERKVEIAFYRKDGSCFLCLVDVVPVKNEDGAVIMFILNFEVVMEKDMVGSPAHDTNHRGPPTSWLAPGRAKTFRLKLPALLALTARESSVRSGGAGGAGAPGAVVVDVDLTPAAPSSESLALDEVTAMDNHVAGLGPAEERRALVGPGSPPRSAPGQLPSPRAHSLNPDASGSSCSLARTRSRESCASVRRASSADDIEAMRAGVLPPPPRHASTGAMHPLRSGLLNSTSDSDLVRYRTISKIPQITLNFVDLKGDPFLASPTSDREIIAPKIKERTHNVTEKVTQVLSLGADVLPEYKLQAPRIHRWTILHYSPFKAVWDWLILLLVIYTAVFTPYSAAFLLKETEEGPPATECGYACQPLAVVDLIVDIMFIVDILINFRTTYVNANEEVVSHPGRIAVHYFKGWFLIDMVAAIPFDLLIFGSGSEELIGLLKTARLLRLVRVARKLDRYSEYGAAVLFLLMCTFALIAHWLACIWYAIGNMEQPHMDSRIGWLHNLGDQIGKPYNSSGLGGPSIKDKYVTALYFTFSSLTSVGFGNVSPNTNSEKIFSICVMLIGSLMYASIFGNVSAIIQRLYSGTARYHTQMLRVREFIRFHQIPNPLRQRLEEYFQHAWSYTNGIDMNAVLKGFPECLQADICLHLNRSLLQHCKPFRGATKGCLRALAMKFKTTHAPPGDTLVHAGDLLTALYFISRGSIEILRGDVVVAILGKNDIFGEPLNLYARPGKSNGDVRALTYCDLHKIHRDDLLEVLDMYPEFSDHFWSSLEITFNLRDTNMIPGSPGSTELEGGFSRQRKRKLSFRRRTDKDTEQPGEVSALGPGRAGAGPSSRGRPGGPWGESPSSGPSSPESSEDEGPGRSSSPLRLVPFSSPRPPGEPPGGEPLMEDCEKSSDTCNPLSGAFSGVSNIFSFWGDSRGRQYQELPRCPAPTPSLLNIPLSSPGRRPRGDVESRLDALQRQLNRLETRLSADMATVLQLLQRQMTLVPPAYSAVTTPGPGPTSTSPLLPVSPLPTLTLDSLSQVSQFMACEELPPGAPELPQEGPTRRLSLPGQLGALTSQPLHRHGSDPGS
row,Structure (SMILES),"hERG current change (%, negative = inhibition) at 1uM"
1,COc1ccc(NC(=O)CC#N)cc1OC,10.1%
2,CCOC(=O)Cc1csc(NC(=O)C(C)Oc2ccc3c(C)cc(=O)oc3c2)n1 (stereo not drawn),11.5%
3,CC1(C)NC(=O)N(CCCOc2ccccc2Br)C1=O,8.49%
4,COc1ccccc1NC(=O)c1ccc(CSc2ncccn2)cc1,18.1%
5,Cc1ccccc1OCc1nnc(SCC(=O)Nc2ccc3nc(SCC(=O)Nc4ccccc4)sc3c2)n1C,9.17%
6,C=CCNC(=S)NNc1nc2c(c(=O)[nH]1)C1(CCCCC1)Cc1ccccc1-2,10.8%
7,CC(NC(=O)C1(C)CC1(Br)Br)C(C)(C)C (stereo not drawn),3.68%
8,O=c1[nH]n2c(=O)c3c([nH]c2c1N=Nc1cccc(Cl)c1)CCCC3,10.3%
9,Cc1cccc(C(=O)Nc2ccc(C(=O)N/N=C/c3ccc4c(c3)OCO4)cc2)c1,12.1%
10,CCCCOc1ccccc1C(=O)NCCCCCC(=O)O,10.8%
11,Cc1ccc(NC(=S)NC(C)(C)C)c([N+](=O)[O-])c1,8.47%
12,O=C(NCCc1c[nH]c2ccccc12)C(=O)NCC1OCCN1S(=O)(=O)c1ccc(Cl)cc1 (stereo not drawn),3.74%
13,N#C/C(=C\c1ccc(OC(=O)c2cccs2)cc1)c1nc2ccccc2[nH]1,15%
14,O=C(Nc1ccccc1C(=O)O)c1ccc2ccccc2n1,15.1%
15,CCOc1ccc(/C=C/C(=O)NCc2ccccc2)cc1,1.74%
16,Cc1ccc(NC(=O)C(C)N2C(=O)c3ccccc3C2=O)cc1 (stereo not drawn),11%
17,CCOc1ccccc1-c1nc(CN2CCCN(C(=O)c3ccco3)CC2)c(C)o1,15.3%
18,Cc1ccc(C(=O)N/C(=C/c2cccs2)C(=O)NCCc2c[nH]c3ccccc23)cc1,-0.996%
19,CCN(CC)CCCOC(=O)C(OC)(c1ccccc1)c1ccccc1.Cl,-2.73%

row,Structure (SMILES),"hERG current change (%, negative = inhibition) at 1uM"
1,COc1ccccc1C(=O)NCC(=O)N/N=C/c1ccncc1,7.02%
2,CC(=O)c1cccc(OCC(=O)N2CCN(c3ccc(C(F)(F)F)cn3)CC2)c1,1.99%
3,COc1ccccc1CNC(=O)C1CCN(S(=O)(=O)c2c(C)noc2C)CC1,9.73%
4,CCOc1ccc2ccccc2c1/C=N/n1cncn1,-3.94%
5,CCCc1nc2ccc(NC(=O)NCCC(=O)OCC)cc2c(=O)n1Cc1ccc(Cl)cc1,10.3%
6,CS(=O)(=O)c1ccc(N2CCOCC2)c(S(C)(=O)=O)c1,-4.75%
7,COc1cccc(CNS(=O)(=O)c2c(C)[nH]c(C)c2C(=O)N2CCCC2)c1,4.4%
8,Cc1nc2ccc(S(=O)(=O)NC(C(=O)N3CCCCCC3)C(C)C)cc2s1 (stereo not drawn),3.77%
9,O=C(COC(=O)Cc1cccs1)Nc1ccc(F)c(F)c1F,18.8%
10,CCOC(=O)c1cc(C#N)c(Oc2ccccc2OC)nc1-c1ccccc1,17%
11,CCCC(C(=O)NCc1ccccc1)N(C(=O)Cn1nnc(-c2cccs2)n1)c1ccc2c(c1)OCCO2 (stereo not drawn),19.2%
12,CCCC(c1nnnn1CCC(C)C)N1CCC(C(N)=O)CC1.Cl (stereo not drawn),6.94%
13,Cc1cccc(Nc2nc(N)c([N+](=O)[O-])c(NCCO)n2)c1,-3.85%
14,COc1ccc(-c2nnc(SCc3nnc(-c4ccccc4)o3)n2-c2ccccc2)cc1,0.184%
15,CCCN1CCN(CCCNC(=S)Nc2ccc3nc(N4CCN(CC)CC4)cc(C)c3c2)CC1,13.3%
16,Cc1ccc(C(=O)n2nnc3ccccc32)cc1[N+](=O)[O-],18%
17,O=C(COc1ccccc1F)Nc1nnc(C2CCCC2)s1,14.1%
18,COc1cccc(C(=O)COC(=O)CCCC(=O)NC2CCCCC2)c1,10.6%
19,COc1ccc(C(=O)NCCn2cc(SCC(=O)NCC3CCCO3)c3ccccc32)cc1 (stereo not drawn),-0.032%

row,Structure (SMILES),"hERG current change (%, negative = inhibition) at 1uM"
1,CSc1ccc(C2NC(=O)c3ccccc3N2)cc1 (stereo not drawn),10.4%
2,Cc1ccc2cc(CCNC(=O)c3cccs3)c(=O)[nH]c2c1C,5.96%
3,CCOC(=O)c1nnn2c1nc(N1CCOCC1)c1ccccc12,10.7%
4,Br.CCn1c(=N)n(CC(=O)c2ccc(Br)s2)c2ccccc21,-22%
5,Cc1cccc(-n2c(-c3ccncc3)n[nH]c2=S)c1,12.4%
6,OCCN1CCN(Cc2ccc3ccccc3c2)CC1,12.5%
7,C=CCn1c(SCc2ccc(C(=O)O)cc2)nc2sc(C)c(C)c2c1=O,9.58%
8,CCN(CC)S(=O)(=O)c1ccc(S(=O)(=O)N2CCC(C(=O)NC3CCN(Cc4ccccc4)CC3)CC2)cc1,17.5%
9,Cc1ccc2oc(=O)c3cnn(CC(=O)NC4CCC(C)CC4)c3c2c1 (stereo not drawn),4.33%
10,CCOC(=O)C1=NN(C(=O)c2ccco2)C2(CC2)C1,5.08%
11,CCCCN(CCCNC(=O)c1ccc(CS(=O)(=O)c2c(Cl)cccc2Cl)o1)Cc1ccccc1,-30.5%
12,O=C(Nc1ccc2c(c1)OCO2)C1CC(c2ccccc2O)=NO1 (stereo not drawn),12.9%
13,CSc1nc2ccc3nc(NC(=O)c4ccc(Cl)s4)sc3c2s1,8.38%
14,Cc1cccc(NC(=O)CSc2nnc(NC(=O)c3ccco3)s2)c1,10.7%
15,COc1cccc(NC(=O)N(CCCN2CCOCC2)C(C)c2cc3ccccc3o2)c1 (stereo not drawn),-33.4%
16,O=C(Cc1c[nH]c2ccccc12)NC1(C(=O)NC2CCCC2)CCCCC1,14.1%
17,CC(C)c1nnc(-c2ccc(Cl)cc2)c(N(C)C)n1,9.61%
18,Cc1cc(C(=O)COC(=O)c2ccc[nH]c2=O)c(C)n1C,9.62%
19,CC(C)c1ccccc1NC(=S)NCc1ccncc1,10.9%
